Results from PubChem BioAssay AID1457 (National Center for Advancing Translational Sciences (NCATS), 2008).
The campaign covered roughly 210,000 compounds. About 730 (0.35%) were called active. This list was built around the results that the source calls inconclusive (neither active nor inactive); the mix of calls is not that of the screen. The call rests on the fitted dose curve; in most records, active means well fitted inhibition curve with a large enough effect; inconclusive means small, poorly fitted or top-dose-only effect; inactive means no such curve, though single readings can be large or run the other way. A potency beside an inconclusive call is a rough fit, not a confirmed value.

Experiment: qHTS Assay for Identifying the Cell-Membrane Permeable IMPase Inhibitors: Potentiation with Lithium; further: nearly all actives have a fitted effect of over 50% in size;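 on activity, negative = IMPase inhibition: plate controls were basal vehicle for no effect and high inhibitor control for full effect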
Settings: CHO-M1 cells, IP1 TR-FRET (IP-One), carbachol + lithium; series mostly up to 59.4 µM; activity, negative = IMPase inhibition: at the top concentration
Description: NIH Chemical Genomics Center [NCGC]
NIH Molecular Libraries Probe Production centers Network [MLPCN]
Assay Submitter (PI): Wei Zheng
Lithium has been widely used for the treatment of bipolar disorder. But lithium has a narrow therapeutic index and it can cause side effects such as thirst, weight gain, tremor, polyuria and memory problems. Although the mechanism for lithium action in treatment of bipolar disorder is still not fully understood, inhibition of inositol monophosphatase (IMPase) and the subsequent depletion of the inositol pool in living cells have been implicated as the primary therapeutic benefit of lithium therapy. Therefore, a selective IMPase inhibitor with reduced side effects might be a good drug candidate to replace lithium for the treatment of bipolar disorder. Several IMPase inhibitors have been discovered previously. However, they are not suitable for therapeutic use because of their poor cell membrane penetrability or oral bioavailability; the development of new cell-permeable IMPase inhibitors is needed.
IMPase catalyzes the hydrolysis of inositol-1-phosphate (IP1) to release free inositol. Binding of an agonist to a Gq coupled GPCR results in the activation of PLC, which hydrolyzes the PIP2 to form inositol-1,4,5-trisphosphate (IP3) and diacyl glycerol (DAG). While DAG activates protein kinase C (PKC), IP3 triggers the elevation of intracellular free Ca2+. The IP3 is very rapidly inactivated by hydrolysis to IP2, IP1 and then inositol by a series of enzymes including IMPase. Free inositols are used for synthesis of PI and thus start another inositol cycle.
To identify new cell-permeable IMPase inhibitors, we developed a cell-based IMPase assay in which the cytosolic IP1 is measured by a time-resolved fluorescence resonance energy transfer (TR-FRET) assay. In this assay, an IP1 specific antibody is used to detect the labeled IP1 tracer. When the cell lysate contains the elevated IP1 due to the inhibition of IMPase, the TR-FRET between the labeled antibody and IP1 tracer is disrupted resulting in a reduction in the total signal. Since the TR-FRET is used, this cell-based assay is a homogenous assay without cell wash and medium change that is suitable for assay miniaturization and HTS. In this particular assay, a small amount of lithium is added to potentiate the response of weak activators.
NCGC Assay Protocol Summary:
A Chinese hamster ovary (CHO) cell line stably expressing the M1 receptor (CHO-M1) was obtained from ATCC and maintained in F-12 Kaighn's media (Invitrogen, Carlsbad, CA) supplemented with 10 % FBS, 100 units/ml penicillin, 100 ug/ml streptomycin and 250 ug/ml geneticin at 37C, 5% CO2 in a humidified atmosphere. Before the assay, aliquots of cells were frozen and stored at -135C. The assay was performed in 1536-well format. Data are reported for both the ratio of the two emission wavelengths, and also for the component 'donor' channel, Em2=620. […] AC50 values were determined from concentration-response data modeled with the standard Hill equation.
(1) Frozen CHO-M1 cells were thaw, washed once with fresh media and resuspended in F12K media containing 10% FBS, 100 units/ml penicillin and 100 ug/ml streptomycin. Cells were plated at 4ul/well (2000 cells) in white, tissue culture treated 1536-well plates, and then cultured at 37C, 5 % CO2 for 16 to 30 hours.
(2) Add 23 nl/well of compound in DMSO solution. The final titration for each compound was between 0.6 nM and 46 uM.
(4) Incubation at 37C, 5 % CO2 for 30 min.
(5) Add 1 ul/well of d2-conjugated IP1 (d2-IP1) and 1 ul/well of Eu+ cryptate conjugated anti-IP1 antibody (Eu+-Ab) prepared in the cell lysis buffer, both from the IP-One kit (Cisbio, MA).
(6) Incubate at room temperature for 10 minutes.
(7) Detect the assay plate (Ex = 320, Em1 =665 and Em2 620) in a ViewLux plate reader.
Potency means the concentration at half of the fitted maximal effect.

Potency, active:
COc1ncc2nc(-c3ccc(F)cc3)c(=O)n(CCc3ccccc3)c2n1 14.1 µM, Cc1nc(SC2CCOC2=O)c2c(C)c(C)sc2n1 (centres undefined) 7.08 µM, COc1ccc(CCNC(=O)CSc2nc(N)c(C#N)c(-c3cccs3)c2C#N)cc1OC 28.2 µM, N#CCCn1c(=O)c(-c2ccc(F)cc2)nc2cnc(Oc3cccc(Cl)c3)nc21 8.91 µM, CC(=O)/C=C(\C)Nc1ccc(-c2cnc(-c3ccccc3)o2)cc1 8.91 µM, N#Cc1c2c(c(-c3ccccc3Cl)[nH]c1=S)CCCC2 10 µM, O=c1[nH]c(=S)c2c(n1-c1ccccc1)CCC2 10 µM

Potency, inconclusive:
COc1cnn(-c2ccc(C)cc2)c(=O)c1Br 11.2 µM [inhibitor, partial curve], Cc1sc2ncnc(Sc3ccccc3C(=O)Nc3ccc(C#N)cc3)c2c1C 28.2 µM [inhibitor, single point], COc1cccc(-c2cc(C(F)(F)F)n3ncc(S(=O)(=O)c4ccccc4)c3n2)c1 11.2 µM [inhibitor, partial curve], CCOC(=O)C1=C(C)Nc2ccccc2N=C1NC(=O)CCCN1C(=O)c2ccccc2C1=O 31.6 µM [inhibitor, single point], Cc1ccc(-c2cc(C(=O)NCc3cnn(C)c3)c3cc(Br)ccc3n2)cc1 10 µM [inhibitor, single point], O=C(Nc1cccnc1)c1cc(-c2ccc3c(c2)OCO3)on1 28.2 µM [inhibitor, single point], O=c1c(CCc2ccccc2)nc2cncnc2n1Cc1ccccc1 17.8 µM [inhibitor, single point], COC(=O)CSc1nc(-c2ccccc2)nc2ccc(F)cc12 20 µM [inhibitor, single point], CC(=O)CSc1ncnc2c1oc1ccccc12 10 µM [inhibitor, partial curve], CN(Cc1c(O)ccc2c1oc(=O)c1ccccc12)C1CCCCC1 11.2 µM [inhibitor, partial curve], N/C(=N\OC(=O)COc1ccc2ccccc2c1Br)c1ccncc1 8.91 µM [inhibitor, partial curve], Cc1nonc1C(=O)N/N=C/c1ccc(O)cc1 28.2 µM [inhibitor, single point], COC(=O)c1c(-c2ccccc2)csc1NC(=O)c1ccco1 28.2 µM [inhibitor, single point], CCOC(=O)c1cc2c(=O)n3ccccc3nc2n(CCCOC)c1=NC(C)=O 11.2 µM [inhibitor, partial curve], CCOC(=O)CSc1cc(=O)n(C)c2cc(Cl)ccc12 10 µM [inhibitor, partial curve], O=C(COC(=O)CCCN1C(=O)c2cccc3cccc(c23)C1=O)Nc1ccc(Cl)cc1 28.2 µM [inhibitor, single point], CCOC(=O)c1sc(NC(=O)Cc2ccc(F)cc2)nc1C 28.2 µM [inhibitor, single point], O=S(=O)(Nc1ncn[nH]1)c1ccc(Cl)cc1 1 µM [inhibitor, partial curve], N#CCN1CCC(c2cc(-c3ccco3)n[nH]2)CC1 1.41 µM [inhibitor, partial curve], COc1ccc(C2C=C(c3cccs3)Nc3nc(CCCO)nn32)cc1 (centres undefined) 28.2 µM [inhibitor, single point], CS(=O)(=O)c1ccc(C2=C(c3ccccc3)C(=O)OC2)cc1 8.91 µM [inhibitor, partial curve], Cc1c(Cl)ccc2c(C(N)=O)cc(-c3ccccn3)nc12 22.4 µM [inhibitor, single point], Clc1ccc2nc3ccccn3c2c1 12.6 µM [inhibitor, partial curve], COc1ccc(CC(=O)Nc2cc(C)c3c(=O)oc4ccccc4c3n2)cc1 3.98 µM [inhibitor, full curve], CCc1ccc(-c2c(C)sc(NC(=O)C3CCC3)c2C#N)cc1 22.4 µM [inhibitor, single point], C=CCn1c(-c2cc(Cl)ccc2OC)n[nH]c1=S 10 µM [inhibitor, single point], CC1(C)C(c2ccccc2)=[N+]([O-])CN1O 0.501 µM [inhibitor, full curve, poor fit], O=C(Nc1ccc(F)c(F)c1)c1cnc(-c2ccccc2)nc1-c1ccccc1 28.2 µM [inhibitor, single point], CN(C(=O)c1ccc(C#N)cc1)c1nnc(-c2ccccn2)s1 28.2 µM [inhibitor, single point], O=C(CSc1nnc(-c2ccccc2)o1)c1ccc2c(c1)OCCO2 28.2 µM [inhibitor, single point], O=C(Nc1ccon1)c1ccc2c(c1)OCO2 28.2 µM [inhibitor, single point], O=C(c1ccco1)N1CCC2(CCCN(c3ncccn3)C2)CC1 11.2 µM [inhibitor, single point], O=C(O)Cc1sc(-c2ccccc2)nc1-c1cccs1 10 µM [inhibitor, partial curve], CCOc1ccc(S(=O)(=O)Nc2nc3ccccc3nc2-n2ccc(=NC(=O)c3cccs3)cc2)cc1 22.4 µM [inhibitor, single point], N#Cc1c(-c2ccccc2)nc(N2CCOCC2)[nH]c1=O 12.6 µM [inhibitor, partial curve], COc1ccc(/C=C2\OC(=O)c3c(OC)cccc32)cc1OC 11.2 µM [inhibitor, single point], N#Cc1c2c(nc(N)c1-c1ccccc1)CCCCC2 28.2 µM [inhibitor, single point], CC(C)OC(=O)CSc1nc2cc3c(cc2cc1C#N)OCO3 28.2 µM [inhibitor, single point], N#Cc1cccc(-c2nc(Nc3ccccc3)c3ccccc3n2)c1 28.2 µM [inhibitor, single point], CCCN1CNc2c(c(=O)[nH]c(=S)n2CCc2ccccc2)C1 17.8 µM [inhibitor, single point], C=CCn1c(SCC(=O)Nc2ccc(-c3nc4ccc(C)cc4s3)cc2)nnc1-c1ccncc1 11.2 µM [inhibitor, partial curve], O=C(Oc1cc2oc(=O)c3c(c2cc1Cl)CCCC3)c1ccco1 10 µM [inhibitor, single point], CC(C)COc1ccc(C(=O)Nc2ccc(NC(=O)c3ccco3)c(Cl)c2)cc1 31.6 µM [inhibitor, single point], CN(C)c1ccc(-c2nc(NCc3cccnc3)c3ccccc3n2)cc1 28.2 µM [inhibitor, single point], Cc1c(C(=O)Nc2ccncc2)sc2nc(-c3ccccc3)cn12 28.2 µM [inhibitor, single point], Cn1c(=O)cc(SCC(=O)NCCCN2CCOCC2)c2ccc(Cl)cc21 3.55 µM [inhibitor, partial curve], CCOC(=O)Nc1ccc2c(CN3C(=O)NC(CC)(CC)C3=O)cc(=O)oc2c1 28.2 µM [inhibitor, single point], COc1ccc(C(=O)c2ccc(CC(=O)O)s2)cc1 20 µM [inhibitor, single point], CCCn1c(=O)c2ccccc2n2c(SCCOc3ccc(OC)cc3)nnc12 28.2 µM [inhibitor, single point]

activity, negative = IMPase inhibition, inactive:
O=C(CCN1C(=O)C2CCCCC2C1=O)Nc1ccc(F)c(F)c1F (centres undefined) 3.05%, Nc1[nH]c(=O)nc2c1ncn2[C@H]1O[C@@H](CO)[C@@H](O)[C@@H]1O -1.96%, O=C(Nc1ccc2c(c1)ncn2-c1ccccc1)c1ccco1 5.61%, COc1cccc(C2C3=C(CCCC3=O)Nc3[nH]n(-c4ccccc4)c(=O)c32)c1 (centres undefined) 10.6%, O=C(Nc1ccccc1)c1ccccc1O 2.61% [at 38.3 µM], CCc1cccc(C)c1NC(=S)NCc1cccn1C 19.3%, COc1ccc(-n2c(Cc3cccn3C)nnc2SCC(=O)NCC2CCCO2)cc1 (centres undefined) 25.3% [at 38.3 µM], O=C(CNC(=O)c1ccco1)OCc1ccc(Cl)cc1 16.8% [at 38.3 µM], O=C(CN1C(=O)C2CC=CCC2C1=O)NCc1cccs1 (centres undefined) 7.17%, C=CCOc1ccc(Br)cc1CNC(C)(C)C 8.94%, COc1ccc(CCNC(=O)Cc2ccc3c(c2)OCO3)cc1OC 1.65%, Oc1ccc(Br)cc1-c1ccn[nH]1 -9.49%, O=c1c2ccccc2nc(SCc2ccccc2)n1Cc1ccco1 10.8% [at 38.3 µM], Cc1csc(NC(=O)C(F)(F)F)n1 -4.04%, CCOC(=O)c1ccc(NC(=S)NN2CCN(C)CC2)cc1 -2.52%, CC(C)N1CCN(Cc2ccc3c(c2)Cc2ccccc2-3)CC1CCO (centres undefined) 17.4%, O=C(c1ccc(CN2CCc3ccccc3C2)cc1)N1CCCCC1 6.19% [at 38.3 µM], CCCSc1nnc(CSc2nc3nc(C)cc(C)n3n2)o1 -2.25% [at 38.3 µM]
